Data reported in PubChem BioAssay AID1645887 (National Center for Advancing Translational Sciences (NCATS), 2021).
“And” between values parts separate entries of the source, which are not always exact repeats. Equal values may be shown once. Among all 16,000 compounds or so, about 40 (0.2%) were called active. Not shown: some 1% with an inconclusive outcome. Calls follow the shape of the dose curve; as a rule, active = well fitted activation curve with a large enough effect; inconclusive = small, poorly fitted or top-dose-only effect, or another doubt; inactive = no such curve, though single readings can be large or run the other way. The list shows a part of the results. Starred links: 1 amine or outer side, 2 acyl side, 3 side chain; linkers in the order of their positions; H or OH if unused. Positions of bridges follow the written chain, without caps; N, C: chain ends. Non-standard residues stand in square brackets, D forms with d. Residues, ends and D or L forms follow the SMILES beside them. ξ: configuration not given here. *: point of attachment. ΔAla(E,3-NHCONH2) = NC(=O)N/C=C(/N)C(=O)O; X11 = NC1=NCCC(C(N[*:1])C(=O)[*:2])N1; ξβ3hOrn = NCCCC(N)CC(=O)*; Dap = NC[CH](N)C(=O)O

target: Rap guanine nucleotide exchange factor 4 (Homo sapiens) (UniProt Q8WZA2); test: Validation qHTS for agonist of cAMP-regulated guanine nucleotide exchange factor 4 (EPAC2); settings: EPAC2 Rap1B BODIPY-GDP exchange, fluorescence; activation: stronger effect = higher value;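 also: exchange makes BODIPY-GDP fluorescence drop when released from Rap1B; series mostly up to about 150 µM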
Chain of UniProt Q8WZA2 (Q8WZA2 whole entry, looked up): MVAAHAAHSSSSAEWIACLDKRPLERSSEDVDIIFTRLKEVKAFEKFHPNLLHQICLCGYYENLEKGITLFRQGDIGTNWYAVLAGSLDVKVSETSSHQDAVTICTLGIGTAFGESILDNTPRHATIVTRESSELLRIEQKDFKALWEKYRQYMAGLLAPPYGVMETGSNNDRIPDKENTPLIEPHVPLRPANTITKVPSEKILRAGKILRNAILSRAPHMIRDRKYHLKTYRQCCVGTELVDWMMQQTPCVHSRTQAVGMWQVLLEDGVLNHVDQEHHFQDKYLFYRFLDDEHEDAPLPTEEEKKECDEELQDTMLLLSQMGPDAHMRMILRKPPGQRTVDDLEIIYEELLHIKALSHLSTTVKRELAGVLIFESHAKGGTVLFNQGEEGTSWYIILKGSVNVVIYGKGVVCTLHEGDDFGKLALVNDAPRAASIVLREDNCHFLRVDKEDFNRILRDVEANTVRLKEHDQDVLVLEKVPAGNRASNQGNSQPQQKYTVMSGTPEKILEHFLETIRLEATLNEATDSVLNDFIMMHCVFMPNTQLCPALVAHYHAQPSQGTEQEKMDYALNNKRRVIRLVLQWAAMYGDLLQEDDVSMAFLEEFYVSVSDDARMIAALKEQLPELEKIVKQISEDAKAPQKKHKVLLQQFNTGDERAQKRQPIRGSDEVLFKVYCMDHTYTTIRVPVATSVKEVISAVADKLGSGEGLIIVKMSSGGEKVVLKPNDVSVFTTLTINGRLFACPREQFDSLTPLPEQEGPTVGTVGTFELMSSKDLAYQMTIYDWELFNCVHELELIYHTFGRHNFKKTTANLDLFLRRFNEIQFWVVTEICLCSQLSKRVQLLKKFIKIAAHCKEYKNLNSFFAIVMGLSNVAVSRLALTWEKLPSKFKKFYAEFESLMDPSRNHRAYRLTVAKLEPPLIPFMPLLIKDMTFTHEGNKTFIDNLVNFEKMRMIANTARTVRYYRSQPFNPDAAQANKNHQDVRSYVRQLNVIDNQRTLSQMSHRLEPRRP
Excerpt: Principle Investigator: Xiaodong Cheng Ph.D.
The University of Texas Medical Branch, […], TX
In multi-cellular eukaryotic organisms, the effects of cAMP are transduced by two ubiquitously-expressed intracellular cAMP receptors, the classic protein kinase A/cAMP-dependent protein kinase (PKA/cAPK) and the more recently discovered exchange protein directly activated by cAMP/cAMP-regulated guanine nucleotide exchange factor (EPAC/cAMP-GEF). Both PKA and EPAC are ubiquitously expressed in all tissues, and an increase in intracellular cAMP levels will lead to the activation of both PKA and EPAC. Therefore, careful dissections of the individual role and relative contribution of EPAC and PKA within the overall cAMP signaling in various model systems are critical for further elucidating the mechanism of cAMP signaling. To date no EPAC-specific antagonists and agonist, as well as isoform-specific agonists have been reported, and developing EPAC-specific pharmacological probes to determine the physiological functions that EPAC play in the overall cAMP-mediated signaling remains a major challenge within the research field. Furthermore, identified regulators of EPAC may lead to new mechanism-based therapeutic strategies specifically targeting the EPAC / cAMP-signaling components as EPAC has been implicated to play important roles in major human pathological conditions such as diabetes, heart disease, and cancer.
This qHTS will be used to screen the Molecular Libraries Small Molecule Repository (MLSMR) as a concentration-titration series using the NCGC unique quantitative screening (qHTS) platform to find activators for EPAC1. In addition, this assay will also be used as a counterscreen for the EPAC2 qHTS. This fluorescent based assay is developed and validated for EPAC1 that measures exchange using EPAC effector Rap1 complex with BODIPY-GDP, a GDP analog with a tethered fluorophores. Activators are identified by monitoring the change in fluorescence signal as the exchanged free BODIPY-GDP has a reduced fluorescence compared to Rap1-bound BODIPY-GDP. Increase in signal (activation) is the desired outcome for the EPAC1 agonist while no activity in this assay is desired for the EPAC2 agonist counterscreen.
[1] de Rooij, J., Zwartkruis, F. J., Verheijen, M. H., Cool, R. H., Nijman, S. M., Wittinghofer, A., and Bos, J.L. (1998) Nature 396, 474-477.
Briefly, three uL of reagents (100 nM EPAC2, 250 nM RAP1B-BODIPY-GDP, 50 uM GDP) were dispensed into a 1536-well Greiner black solid-bottom medium binding assay plate. Controls and test compounds (23 nL) were transferred to the plate via a Kalypsys pin tool equipped with a 1536-pin array. The plates were centrifuged at 1,000 rpm for 15 seconds followed by 5 minute incubation at room temperature. The assay plates were read at 5 minute intervals for 30 minutes in the ViewLux plate reader using 480nm excitation and 540nm emission filters. The results were normalized to the agonist positive control of 6.5 mM cAMP.
% is scaled to controls: 0 for no effect and ±100 for the full control effect.

activation, inactive:
CC1CCC2(C(=O)O)CCC3(C)C(=CCC4C3(C)CCC3[C@@]4(C)CC(O)C(O)[C@@]3(C)CO)C2C1C (some centres undefined) -48.2%
COc1ccc2nc(NC(=O)Nc3ccccc3)sc2c1 -21.3%
CS(=O)(=O)Nc1cccc(-c2ccc3ncnc(NCc4cccnc4)c3c2)c1 -10.3%
Cc1ccccc1-c1cc(NCc2ccccc2)ncn1 -9.16%
CC(=O)NCCNc1nc(-c2ccccc2C(F)(F)F)nc2ccccc12 -8.78%
Nc1ncnc2c1ncn2[C@@H]1O[C@H](COP(=O)(O)OP(=O)(O)OP(=O)(O)O)[C@@H](O)[C@H]1O 1.95%
CCC(=O)O[C@]1(C(=O)CCl)[C@@H](C)C[C@H]2[C@@H]3C[C@H](F)C4=CC(=O)C=C[C@]4(C)[C@@]3(F)[C@@H](O)C[C@@]21C 9.71%
CC(C)Oc1ccc2c(=O)c3cc(C(=O)O)ccc3oc2c1 -26.1%
CCOC(=O)/C=C/c1ccc2c(c1)S(=O)(=O)N(Cc1ccc(OC)cc1)[C@H]2CC(=O)OCC -12.4%
COCCn1c(=O)c(CCc2ccccc2)nc2cncnc21 -4.71%
Cc1cnc(CNc2nc(-c3ccccc3C)nc3ccccc23)cn1 0.402%
OC1CCN(Cc2ccc3c(c2)CN(C/C=C/c2ccco2)CCO3)CC1 -9.66%
Cc1noc(C)c1C(=O)N1CCC2(CC1)CCN(c1cccc(-c3ccccc3)c1)CC2 -35%
N[C@@H](C(=O)N[C@@H]1C(=O)N2C(C(=O)O)=C(CSc3cn[nH]n3)CS[C@H]12)c1ccc(O)cc1 4.47%
CCNc1ncc2nc(-c3cccc(C#N)c3)c(=O)n(CCC#N)c2n1 -7.9%
O=C(NCC1Cc2cc(-c3cnc4ccccc4c3)cc(F)c2O1)c1cnsn1 (centres undefined) -5.69%
N[C@H](Cc1ccc(Cl)cc1)C(=O)O -4.42%
COc1ccccc1C1CN(Cc2cn(C)nc2C)Cc2ccccc2O1 (centres undefined) -21.6%
COc1ccc(-c2cc(=O)c3ccc(O)cc3o2)cc1 2.86%
Cc1cc(C)c2ccccc2n1 -17.1%
Cc1c(C(=O)NN2CCOCC2)nn(-c2ccc(Cl)cc2Cl)c1-c1ccc(I)cc1 -23.8%
CCN1CC(CCN2CCOCC2)C(c2ccccc2)(c2ccccc2)C1=O (centres undefined) 16.5%
CN(C(=O)c1cnn(-c2ncc3c(n2)-c2ccccc2CCC3)c1C1CC1)C1CCOC1 (centres undefined) -15.6%
O=C(C[N+]1(CCc2ccccc2)CCOCC1)c1cccc([N+](=O)[O-])c1 -6.4%
COc1ccc(CN2CCCC(c3nc(-c4ccncc4)ncc3-c3ccccc3C)C2)c(OC)c1 (centres undefined) 5.11%
Cc1csc(-c2nc3ccccc3n2C)n1 1.35%
COCC(=O)N1CCC2(CC1)CN(C(=O)Nc1cccc(F)c1)C2 1.4%
O=C(O)Cc1sc(-c2ccccc2)nc1-c1ccc(Cl)cc1 -16.4% and -7.58% and -21.3%
CC(=O)OCC(=O)[C@@]12N=C(C)O[C@@H]1C[C@H]1[C@@H]3CCC4=CC(=O)C=C[C@]4(C)[C@H]3[C@@H](O)C[C@@]12C -10.6%
C#CCN1C(C)=C(C(=O)OC)C(c2cccc([N+](=O)[O-])c2)C(C(=O)OCC)=C1C (centres undefined) -23%
OCc1cc(C(O)CNCCCCCCOCCCCc2ccccc2)ccc1O (centres undefined) -15.4% and -30.7% and -69.4%
COc1ccc(C(=O)/C=C/c2ccccc2)cc1 -10.1%
COc1ccc(-c2nc3cnc(Oc4cccc(Cl)c4)nc3n(CCC#N)c2=O)cc1 -21.2%
C[C@@](N)(C(=O)O)c1cccc(CC(=O)O)c1 0.169%
Cc1noc(C)c1-c1nc(NCc2ccccc2)c2ccccc2n1 -23%
C[C@@H](CN1CC(=O)NC(=O)C1)N1CC(=O)NC(=O)C1 5.87%
O=S1(=O)CCO[C@H]2Cc3ccccc3[C@H]2N1Cc1ccccc1F -7.43%
O=c1c(-c2ccc(F)cc2)nc2cnc(N3CCOCC3)nc2n1Cc1cccs1 8.43%
FC(F)(F)c1ccccc1-c1nc(Nc2ccncc2)c2ccccc2n1 -2.13%
CC(=O)Nc1ccc(CC(=O)O)cc1 5.38%
O=c1c(-c2cccc(Cl)c2)nc2cncnc2n1C1CC1 0.439%
c1ccc(Nc2ncncc2-c2ccoc2)cc1 13.2%
COc1cccc(-c2ccc3ncnc(NCc4cnc(C)cn4)c3c2)c1 -10.8%
Fc1ccc(Nc2ncnc3ccc(-c4ccoc4)cc23)cc1 -23.2%
Cc1nc2n(c(=O)c1CCN1CCC(c3noc4cc(F)ccc34)CC1)CCCC2 6.04%
CNCCC(Oc1ccc(C(F)(F)F)cc1)c1ccccc1 (centres undefined) -19.6% and 3.82% and -43.8%
C(=C\c1ccnc2ccccc12)/c1ccc(N2CCNCC2)cc1 -34.3%
CC(C)[N+]1(C)C2CCC1CC(OC(=O)C(CO)c1ccccc1)C2 (centres undefined) -2.16% and 12.4%
O=S(=O)(O)CCS -1.59% and 0.998%
O=S1(=O)CCOCCCN1Cc1ccccc1 -1.85%
NCCCC(N)CC(=O)NCC1NC(=O)C(CO)NC(=O)C(N)CNC(=O)C(C2CCN=C(N)N2)NC(=O)/C(=C\NC(N)=O)NC1=O (stereo not drawn) (H-[Dap]S[Dap](ξβ3hOrn)[ΔAla(E,3-NHCONH2)][X11]; lactam 1-C; configuration not given here) -1.48%
CCn1cc(C(=O)O)c(=O)c2cnc(N3CCCC3)nc21 -4.76% and -9.46%
O=C(c1ccncc1)N1CCC2(CC1)CCN(c1ccccc1)CC2 -11.7%
CCOc1ccccc1OCCN[C@H](C)Cc1ccc(OC)c(S(N)(=O)=O)c1 -9.6%
C[C@@](N)(C(=O)O)c1ccc(S(=O)(=O)O)cc1 -21.4%
COc1cccc(-c2nc(N3CCNCC3)c3ccccc3n2)c1 -17.9%
Cc1cc2c(c(-c3cnccn3)c1)OC(CNC(=O)c1c(F)cccc1Cl)C2 (centres undefined) 1.81%
CCCCCCCCCCC/C=C\C(C)(C)/C=C\CCCC(=O)O -8.11% and -73.7%
CCCCCCCCCCCCC[N+](C)(C)Cc1ccccc1 2.4%
Nc1nc2c(ncn2C2OC(CO)CC2O)c(=O)[nH]1 (centres undefined) -11.3%
CC(C)(C)NC[C@H](O)c1ccc(O)c(CO)c1 -10.9%
Cc1cc2c(cc1C)N[C@]1(C[C@H]3CCCC(=O)N4CC[C@@H](C1)[C@@H]34)C(=Nc1ccccc1C)N2 -12.7%
CN(CC(=O)O)c1ccc(C=O)cc1 -9.52%
COc1ccc(C(=O)N2CCC3(CCN(Cc4ccncc4)CC3)CC2)cc1 -6.28%
CC(=O)Nc1c(I)c(C(=O)O)c(I)c(N(C)C(C)=O)c1I -16.5%
CC(=O)N[C@H](CS)C(=O)O 2.82%
COc1ccc2[nH]cc(CCNc3ncncc3-c3ccc(N(C)C)cc3)c2c1 -8.15%
COc1cccc(CN(C)C(=O)c2cnn(-c3nccc(-c4ccc5c(c4)OCO5)n3)c2C)c1 -8.12%
COc1ccc(-c2oc3ccccc3c(=O)c2O)cc1OC -0.984%
N#CCCn1c(=O)c(-c2ccccc2)nc2cnc(N3CCOCC3)nc21 -7.43%
Cc1cc(O)cc2c1O[C@](C)(CCC[C@H](C)CCC[C@H](C)CCCC(C)C)CC2 6.69% and -17.5%
CCCCNC(=O)NS(=O)(=O)c1ccc(C)cc1 -3.16% [middle of 4 runs]
Nc1c2ccccc2nc2ccccc12 (tested in a mixture with another compound) -10.5%
COC1C(O)CC(=O)OC(C)C/C=C/C=C/[C@@H](OC2CCC(N(C)C)C(C)O2)C(C)C[C@@H](CC=O)[C@@H]1O[C@H]1OC(C)[C@H](O[C@@H]2C[C@@](C)(O)C(O)C(C)O2)C(N(C)C)C1O (some centres undefined) 10%
COc1ccc(-c2nc3cnc(N4CCOCC4)nc3n(C[C@H]3CCCO3)c2=O)cc1 -8.33%
O=Cc1ccc2[nH]ccc2c1 -19.4%
COC(=O)c1c(C)cc(O)cc1O -7.42%
COc1c(CO)cc(CO)cc(CO)c1=O -64.9%
CCOC(=O)OC(C)OC1=C(C(=O)Nc2ccccn2)N(C)S(=O)(=O)c2ccccc21 (centres undefined) -0.524%
CC(=O)[C@H]1CC[C@H]2[C@@H]3C[C@H](C)C4=CC(=O)CC[C@]4(C)[C@H]3[C@@H](O)C[C@]12C 4.1%
[N-]=[N+]=N[C@@H](CCN1CC[C@H](NC(=O)OCc2ccccc2)CCC1=O)c1ccccc1 -8.4%
COCCn1c(=O)c(-c2cccs2)nc2cnc(N3CCN(C)CC3)nc21 5.09%
N#Cc1ccc(CN2CCC3(CCNCC3)CC2)cc1 7.14%
C[C@]12CC[C@@H]3c4ccc(O)cc4CC[C@H]3[C@@H]1CC[C@@H]2OP(=O)(O)O 7.32%
